In all, about 48,000 compounds went through this assay and about 450 (0.94%) were called active. Roughly 19% stayed inconclusive and do not appear here. The call rests on the fitted dose curve; in most records, active means well fitted inhibition curve with a large enough effect; inconclusive means small, poorly fitted or top-dose-only effect; inactive means no such curve, though single readings can be large or run the other way. This is one part of the list.
Assay: Primary qHTS for Identification of Small Molecule Inhibitors of Huntingtin Promoter Activity; further: nearly all actives have a fitted effect of over 50% in size
Conditions: HEK293 HTT promoter firefly luciferase reporter (activity 0% = vehicle and -100% = no light), 24 h; series mostly up to 57.5 µM; activity change, negative = inhibition: at the top concentration
How it was run: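 Firefly luciferase signal from promoter-reporter HEK293 cells was scaled between vehicle (0%) and zero RLU (-100%). Compounds were tested at final concentrations of up to 57.5 uM over 24 h at 37 degrees C. PTC124 at 50 uM final served as control inhibitor.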

Activity change, negative = inhibition, inactive:
C=CCOc1ccccc1OCC(O)CNC(C)C (centres undefined) 6.44%
COc1ccc(N2CCN(C(=O)c3c4c(nc5ccccc35)C(=O)N(C3CCCCC3)C4)CC2)cc1 -10.1%
O=C(Nc1ccc2nc(SCC(=O)N3CCCC3)sc2c1)c1cccc(F)c1 -7.02%
CCc1ccc(-n2c(=O)c3ccc(C(=O)NCCc4ccccc4)cc3n(Cc3ccccc3C#N)c2=O)cc1 -11.7%
COc1ccc(-c2nc3ccccc3o2)cc1NC(=O)c1ccc(OCC(C)C)cc1 5.39%
COc1ccc(-c2nnc(SCC(=O)c3ccc(NC(C)=O)cc3)o2)cc1OC 1.94%
COC(=O)c1c(-c2cccs2)csc1NC(=O)c1ccc(C(C)(C)C)cc1 -12.6%
CCOC(=O)c1c(-c2ccc(C)cc2C)csc1NC(=O)c1ccccc1Cl -6.6%
NC(=O)C1CCN(C(=O)c2ccc3c(c2)N(Cc2cccc(Cl)c2)C(=O)c2ccccc2S3(=O)=O)CC1 -22.2%
Cc1ccc2c(=O)cc(C(=O)Nc3c(C(=O)c4ccccc4)oc4ccccc34)oc2c1 4.18%
CCOc1ccc(NS(=O)(=O)c2ccc3[nH]cc(C(=O)N(C)C4CCCCC4)c(=O)c3c2)cc1 3.55%
O=C(NCCCN1CCCCC1)c1ccc2c(c1)sc1nc(-c3ccc(F)cc3)cn12 -8.53%
COCCNC(=O)Cn1cc2c(n1)-c1c(oc(C(=O)N3CCCC3)c1C)CC2 0.14%
NC(=O)Cn1c(=O)n(CCCCCC(=O)NCc2ccccc2Cl)c(=O)c2sccc21 -4.72%
O=C(O)c1ccc[n+]([O-])c1 2.84%
COC(=O)c1c(-c2cccs2)csc1NC(=O)COc1ccccc1 42.7%
CC(CNC(=O)c1ccc(Nc2nc3ccccc3n3nnnc23)cc1)c1ccccc1 (centres undefined) 12.5%
COc1ccc(OC(=O)CSc2nnc(-c3ccc(F)cc3)o2)cc1 2.75%
CCCn1c2ccccc2c2cnn(CC(=O)NC(C)CC)c(=O)c21 (centres undefined) -15%
CCC(=O)N1CCN(c2nc3c(C)cccc3s2)CC1 24.3%
Cc1ccc([N+](=O)[O-])c(Oc2ncnc3c2oc2ccccc23)c1 -19.3%
Cc1ccc(NC(=O)CCCN2C(=O)COc3ccc(C)cc32)c(C)c1 -11.3%
Cc1c(N)c(=O)n(-c2ccccc2)n1C -6.07%
COc1ccc2c(Sc3ccccc3)c(C(=O)N3CCC(C)CC3)[nH]c2c1 7.85%
Cc1ccc(CNC(=O)CN2C(=O)CSc3ccc(S(=O)(=O)N4CCCC4)cc32)cc1 -6.39%
CCc1ccc(C(=O)CSc2nc(-c3ccccc3)nc3c2CCCC3)cc1 -8.29%
COc1ccc2nc3sc(C(=O)N4CCN(c5ccc(F)cc5)CC4)cc3cc2c1 2.26%
COc1ccc(CNS(=O)(=O)c2ccc(F)c(C(=O)Nc3c(C)cc(C)cc3C)c2)cc1 -24.6%
CCOC(=O)c1cc(-c2ccc(OC)cc2)n(CCC(=O)Nc2cccc(C(C)=O)c2)c1C -19.3%
Cc1cc2oc(C(=O)Nc3sc4c(c3C(=O)NCc3ccccc3)CCCC4)cc(=O)c2cc1C -13.2%
CN(C)c1ccc(CNC(=O)CN2C(=O)CCn3nc(-c4cn(C)c5ccccc45)cc32)cc1 -4.04%
COc1cccc(-c2nc3c(c(SCc4ccccc4Cl)n2)Cc2c(CO)cnc(C)c2O3)c1 -11.8%
CCCN(CCC)C(=O)C1CCCN(c2ncnc3onc(-c4ccc(F)cc4)c23)C1 (centres undefined) 1.15%
CCC(C)NC(=O)CSc1nnc(-c2ccc(C)cc2)c(-c2ccc(C)cc2)n1 (centres undefined) -25.7%
COc1cccc(CNC(=O)C2CCN(C(=O)c3sccc3-n3cccc3)CC2)c1 -19.4%
O=C(NCCCO)C(=O)Nc1c2c(nn1-c1ccccc1)CSC2 -14.2%
CCCN(CCC)C(=O)c1cn(CC)c2ccc(S(=O)(=O)N3CCCCC3)cc2c1=O 1.91%
CCC(CC)C(=O)NCc1nc2cccnc2n1Cc1ccc(F)cc1 -2.32%
O=C(CN1C(=O)C2(SCC(=O)N2c2ccccc2)c2ccccc21)NCCc1ccccc1 (centres undefined) -18.4%
Cc1cn2c(=O)cc(COC(=O)c3ccccc3F)nc2s1 -11.5%
Cc1ccc(C(=O)Nc2ccccc2C(=O)OCc2cc(=O)n3nc(C4CC4)sc3n2)cc1 2.96%
CCOc1ccc(-c2nnc(SCC(=O)c3ccc(F)cc3)n2-c2ccccc2)cc1 -24.1%
Cc1cc(C)cc(NC(=O)CCCc2nnc3n(CC(C)C)c(=O)c4sccc4n23)c1 -9.59%
CCN(CC)CCCNC(=O)C(=O)Nc1ccc2nc3n(c(=O)c2c1)CCCCC3 10.3%
Cc1ccc(Cn2ccnc2SCC(=O)Nc2ccc3c(c2)OCCO3)cc1 7.05%
COc1ccc(/C=C/C(=O)Nc2ccc(Cl)cc2Cl)cc1 -12.6% [at 11.5 µM]
Cc1ccc(NC(=O)Cn2cc(C(=O)c3ccco3)c3ccccc32)c(C)c1 -22.1%
CCOc1cc(C2CC(=O)Nc3c2c(=O)nc(SCc2cccc(Cl)c2)n3C)ccc1O (centres undefined) -0.835%
Cc1ccccc1CNC(=O)c1cc2cccc3c2n1CC(C)S3 (centres undefined) -28.1%
CCOc1ccc(OCC)c(-n2cnnn2)c1 -7.19%
Cc1c(NC(=O)Nc2ccc(Cl)c(C(F)(F)F)c2)c(=O)n(-c2ccccc2)n1C -17.6%
Fc1ccccc1N1CCN(c2ncnc3onc(-c4cccc(Cl)c4)c23)CC1 -28.8%
COc1cccc(OCc2cc(=O)n3cc(C)sc3n2)c1 35%
Cc1cccn2c(=O)cc(COc3ccc(NC(=O)C(C)Oc4ccccc4)cc3)nc12 (centres undefined) -24.8%
Cn1c(=O)c2c(-c3ccccc3Br)n(Cc3ccccc3)cc2n(C)c1=O -6.41%
NS(=O)(=O)c1ccc(NC(=O)CN2CCN(c3ccc(F)cc3)CC2)cc1 -29.2%
COc1ccc(-n2c(SCC(=O)NC3CCCCC3)nc3c([nH]c4ccccc43)c2=O)cc1 6.12%
COc1ccc(-c2cc3c(=O)n(CC(=O)Nc4cc(C)ccc4C)ccn3n2)cc1 16.3%
Cc1ccc(Cl)cc1-n1ncc2c(NCCC3=CCCCC3)ncnc21 -33.3%
CC1CC(=O)N(CC(=O)Nc2ccc(F)cc2F)c2ccccc2S1 (centres undefined) -10.7%
Cc1c(-c2ccccc2)c(=O)oc2c(CN3CCCC3)c(O)ccc12 -1.09%
CCc1ccc(C2CC(=O)NC(NC(=O)c3ccc(C(C)(C)C)cc3)=N2)cc1 (centres undefined) 6.71%
CCOc1ccc(/C=C/c2nc(C#N)c(Nc3ccc(OCC)cc3)o2)cc1 0.139%
COc1ccc(NC(=O)Nc2cccc(-c3cn4cccnc4n3)c2)cc1 25.1%
O=C(NCCc1ccc(Cl)cc1)c1ccc2c(c1)N(Cc1ccccc1F)C(=O)c1ccccc1S2(=O)=O 9.68%
CCOc1ccc(NC(=O)Cn2c(=O)n(Cc3ccc(C(=O)NCc4ccc(C)cc4)cc3)c(=O)c3ccccc32)cc1 -0.57%
CC=CC[C@@H](C)C(=O)[C@H]1C(=O)N[C@@H](C(C)C)C(=O)N(C)CC(=O)N(C)[C@@H](CC(C)C)C(=O)N[C@@H](C(C)C)C(=O)N(C)[C@@H](CC(C)C)C(=O)N[C@@H](C)C(=O)N[C@H](C)C(=O)N(C)[C@@H](CC(C)C)C(=O)N(C)[C@@H](CC(C)C)C(=O)N(C)[C@@H](C(C)C)C(=O)N1C 16.1%
COc1cccc(CNC(=O)CN2C(=O)COc3ccc(S(=O)(=O)N4CCCCCC4)cc32)c1 -25.4%
CCc1cccc(NC(=O)Cn2c(=O)n(CCC(=O)NCC3CCCO3)c(=O)c3cc(OC)c(OC)cc32)c1 (centres undefined) -7.7%
Cc1ccc(-c2nc3ncccc3o2)cc1NC(=O)c1ccccc1Br 7.03%
Cc1ccc(CNC(=O)c2cc3c(s2)-c2ccc(Cl)cc2SC3)cc1 -11.7%
CN(C)c1ccc(NC(=O)CN2CCN(CC(=O)Nc3ccc(Br)cc3)CC2)cc1 -5.25%
Cc1ccc(CSC2=Nc3ccccc3C3=NC(CC(=O)NCc4cccs4)C(=O)N23)cc1 (centres undefined) 4.36%
COc1ccc(C(=O)Nc2nnc(S(=O)(=O)N3CCC(C)CC3)s2)cc1OC -7.84%
CCN(C(=O)C1CCCN(c2ncnc3onc(-c4ccc(F)cc4)c23)C1)c1ccccc1 (centres undefined) -4.68%
CCOc1ccc(NC(=O)NCCn2nnc3cc(S(=O)(=O)N(C)C)ccc32)cc1 -13%
CC(C)(C)c1ccc(-c2nc(S(=O)(=O)c3ccccc3)c(N3CCOCC3)o2)cc1 -14.6%
CC1CCCCN1Cc1c(O)ccc2c(=O)c(-c3ccccc3)coc12 (centres undefined) -3.07%
Cc1ccc(CNC(=O)c2sc3nc(-c4ccc(F)cc4)ccc3c2N)cc1 -5.89%
CCOC(=O)C1=C(CN2CCCCC2)NC(=O)NC1c1ccc(C)cc1 (centres undefined) -5.48%
CCOc1ccc(C(CC(=O)Nc2cc(C)c(Cl)cc2OC)N2Cc3ccccc3C2=O)cc1OC (centres undefined) -23.4%
COC(=O)c1ccccc1NC(=O)CCc1c(C)nc2c(c(C)nn2-c2ccccc2)c1C 11.4%
COc1ccc(Cn2ccc3nc(C)c(C(=O)NCc4ccc(OC)cc4OC)cc3c2=O)cc1 8.23%
COc1cccc(CNC(=O)CCCn2nc(C)n3c(cc4sccc43)c2=O)c1 -0.0687%
CCN(C(=O)c1nn(-c2ccc(C)cc2)c(=O)c2c1c1ccccc1n2C)c1ccc(F)cc1 -8.48%
O=C(Nc1nnc(S(=O)(=O)N2CCCC2)s1)c1ccccc1F 19.2%
Cc1ccc(N2CC(NC(=O)c3ccco3)CC2=O)cc1C (centres undefined) -25.6%
CC(C)COc1ccc(-c2nonc2NC(=O)c2ccc(F)cc2)cc1 -21.7%
O=C(NCCc1ccccc1)c1ccc(CSc2nc3ccncc3n2Cc2ccccc2F)cc1 7.14%
O=C(Cn1ncc2c([nH]c3ccccc32)c1=O)NCc1cccc(Cl)c1 6.93%
CCOC(=O)c1cnc2c(C)cc(Cl)cc2c1NCCc1ccc(OC)c(OC)c1 1%
COc1ccc(NC(=O)C(C)n2c(C)c3cnn(-c4ccccc4)c(=O)c3c2C)cc1Cl (centres undefined) -26.5%
O=C(CC1N=C2c3ccccc3N=C(SCc3ccccc3Cl)N2C1=O)NCc1cccs1 (centres undefined) -17.2%
COc1ccc(C(=O)NNc2ncnc3c2cnn3-c2ccccc2)cc1 -22.1%

From PubChem BioAssay AID1508623 (National Center for Advancing Translational Sciences (NCATS), 2021)
